# Measured values taken from the antibiotic and cytotoxicity screens of Wong et al. (2023).
# This is one part of the list.
# Columns and labels:
# HSkMC = human skeletal muscle cells; test: cytotoxicity call (relative viability < 0.9); settings: 10 µM
# HepG2 = test: cytotoxicity call (relative viability < 0.9); settings: 10 µM
# S. aureus RN4220 = test: growth inhibition call (relative growth <= 0.2); settings: 50 µM
SMILES,cytotoxicity call (HSkMC),cytotoxicity call (HepG2),growth inhibition call (S. aureus RN4220)
C[C@@H]1CN([C@H](C)CO)C(=O)CCCn2nncc2CO[C@H]1CN(C)S(=O)(=O)c1ccc(-n2cccn2)cc1,inactive,inactive,inactive
COc1ccc(S(=O)(=O)Nc2ccc3c(c2)CC(=O)N([C@H](C)CO)C[C@H](C)[C@H](CN(C)Cc2ccc(-c4ccccc4)cc2)O3)cc1,inactive,active,inactive
COCC(=O)N(C)C[C@@H]1Oc2cc(C#Cc3ccccc3)ccc2S(=O)(=O)N([C@@H](C)CO)C[C@@H]1C,inactive,inactive,inactive
COc1ccc(NC(=O)N(C)C[C@H]2OCCCC[C@H](C)Oc3ccc(NC(=O)NC4CCCCC4)cc3C(=O)N([C@H](C)CO)C[C@H]2C)cc1,inactive,inactive,inactive
C[C@@H]1CN([C@@H](C)CO)C(=O)c2c(c3ccccc3n2C)-c2ccccc2CO[C@@H]1CN(C)Cc1cccc(C(F)(F)F)c1,active,inactive,inactive
COc1ccc(CN(C)C[C@@H]2Oc3ccc(NS(=O)(=O)c4c(C)noc4C)cc3C(=O)N([C@@H](C)CO)C[C@@H]2C)cc1,inactive,inactive,inactive
COc1ccc(S(=O)(=O)N[C@@H]2CC[C@H](CC(=O)N3CCN(c4ccccc4)CC3)O[C@@H]2CO)cc1,inactive,inactive,inactive
COc1ccc(NC(=O)Nc2ccc3c(c2)C(=O)N([C@H](C)CO)C[C@H](C)[C@@H](CN(C)C(=O)Nc2ccccc2)OCCCC[C@H](C)O3)cc1,inactive,inactive,inactive
C[C@@H]1CN([C@H](C)CO)C(=O)c2cc(N(C)C)ccc2O[C@@H](C)CCCCO[C@@H]1CN(C)C(=O)Nc1ccc(C(F)(F)F)cc1,inactive,inactive,inactive
C[C@@H]1CCCCO[C@H](CN(C)C(=O)Cc2ccccc2)[C@@H](C)CN([C@H](C)CO)C(=O)c2cc(NC(=O)Nc3ccccc3)ccc2O1,inactive,inactive,inactive
Cc1noc(C)c1S(=O)(=O)Nc1ccc2c(c1)C(=O)N([C@H](C)CO)C[C@@H](C)[C@H](CN(C)Cc1ccc3c(c1)OCO3)O2,inactive,inactive,inactive
CN(C)C(=O)C[C@H]1CC[C@H](NC(=O)C2CC2)[C@@H](CO)O1,inactive,inactive,inactive
CCN(CC)CCN(Cc1ccc(-c2ccc(C(F)(F)F)cc2)cc1)C(=O)Cn1c(SCc2ccc(F)cc2)nc(=O)c2c1CCC2,active,active,inactive
Cl.Cl.O=C(O)COCCN1CCN(C(c2ccccc2)c2ccc(Cl)cc2)CC1 (stereo unspecified),inactive,inactive,inactive
CCCCNc1ccccc1,inactive,inactive,inactive
CC(=O)N1[C@@H]2c3ccc(-c4ccccc4)c(=O)n3C[C@H]1[C@H](CO)[C@H]2C(=O)NCCCN1CCOCC1,inactive,inactive,inactive
COc1ccc(CN(C)C[C@H]2OCCCC[C@@H](C)Oc3ccc(NC(=O)Cc4ccccc4)cc3C(=O)N([C@H](C)CO)C[C@H]2C)cc1,inactive,inactive,inactive
O=C(N[C@@H](c1ccc(-c2ccccc2)cc1)c1cnccn1)C1CCN(Cc2ccc(Cl)c(Cl)c2)CC1,inactive,inactive,inactive
N=C(N)NS(=O)(=O)c1ccc(N)cc1,inactive,inactive,inactive
O=C(C[C@H]1CC[C@H](NS(=O)(=O)c2ccc(F)cc2)[C@H](CO)O1)NCc1ccc(Cl)c(Cl)c1,inactive,inactive,inactive
CC(=O)N1CCN(CC(=O)NS(=O)(=O)c2ccccc2)CC1,inactive,inactive,inactive
Cc1noc(C)c1NC(=O)Nc1cccc2c1O[C@@H](CN(C)C(=O)Nc1cccc3ccccc13)[C@H](C)CN([C@H](C)CO)C2=O,inactive,inactive,inactive
CC(C)NC(=O)Nc1ccc2c(c1)C(=O)N([C@@H](C)CO)C[C@H](C)[C@@H](CN(C)Cc1ccccc1)OCCCC[C@H](C)O2,inactive,inactive,inactive
C[C@@H]1CCCCO[C@H](CN(C)C(=O)Nc2ccccc2)[C@H](C)CN([C@@H](C)CO)C(=O)c2cc(NC(=O)Nc3ccccc3)ccc2O1,inactive,inactive,inactive
COCCOC(=O)N1C(=O)[C@@]2(c3cc(C#CC4=CCCCC4)ccc31)[C@H](C(=O)N1CCc3cc(OC)c(OC)cc3C1)[C@H]1C(=O)O[C@H](c3ccccc3)[C@H](c3ccccc3)N1[C@@H]2c1ccc(O)cc1,inactive,inactive,inactive
C[C@@H]1CN([C@H](C)CO)C(=O)c2cc(NC(=O)Cn3cnnn3)ccc2O[C@H]1CN(C)Cc1ccccc1,inactive,inactive,inactive
COc1ccc(S(=O)(=O)N(C)C[C@@H]2OCCCC[C@H](C)Oc3ccc(NC(=O)Nc4cccc5ccccc45)cc3C(=O)N([C@@H](C)CO)C[C@H]2C)cc1,inactive,inactive,inactive
